# The campaign covered roughly 4,100 compounds. About 1,600 (39%) were called active. Inconclusive means that the source gave no clear call. Such entries were picked first, then a sample of the others. The call rests on the fitted dose curve; in most records, active means well fitted inhibition curve with a large enough effect; inconclusive means small, poorly fitted or top-dose-only effect; inactive means no such curve, though single readings can be large or run the other way. Where the call is inconclusive, the potency comes from a doubtful curve fit.
# Experiment: qHTS Validation assay for Inhibitors of Plasmodium falciparum Dd2 growth in vitro; further: nearly all actives have a fitted effect of over 70% in size
# Conditions: P. falciparum Dd2 in RBCs, SYBR Green growth, 72 h; series mostly up to 28.7 µM
# Text: Malaria, a parasitic disease spread to humans through the bite of a Plasmodium infected Anopheles mosquito, continues to be a global health burden affecting millions of people, with an estimated 228 million cases and 405,000 deaths in 2018. Concerns about safety and limitations of current antimalarial treatments strongly emphasize the need to develop new therapeutic options. The scarce number of chemotypes and validated drug targets with efficacy against the liver stage, have hindered development of new antimalarials. To address this, a chemoprophylactic drug discovery effort was conducted through a combined phenotypic high-throughput asexual blood stage and liver stage screen, providing a robust foundation to identify liver-stage active lead chemotypes. Compounds were initially screened against Plasmodium falciparum Dd2 strain parasites using a in vitro SYBRGreen-1 based 72 hr proliferation assay to identify novel chemotypes to advance to liver stage assays. NIH/NCATS Early Translation Branch Assay Submitter (PI): Anton Simeonov Ph.D.
# […] Assay Protocol: PROTOCOL TABLE (as described by Inglese et al., 2007) SEQUENCE No. (e.g., 1, 2, 3, etc.); PARAMETER (e.g., Cells, Incubation, Reagent, etc.); VALUE; DESCRIPTION SEQUENCE, Parameter, Description 1; Reagent; 3 uL complete malaria growth medium, 1536 TC treated Black clear bottom plate 2; Controls; 23 nL positive control artesunate (300 nM final) to column 1; Neutral control DMSO to columns 2-4 3; Compound; 23 nL of compounds in dose response concentration (29 uM to 0.5 nM final) 4; Reagent; 5 uL malaria infected red blood cells (2.5% hematocrit final, 0.3% parasitemia 5; Time; 72 hours at 37C (5% O2, 5% CO2, 90% N2; 95% Rh) 6; Reagent; 2 uL lysis buffer/SYBRGreen-1, 25 sec shake immediately following dispense 7; Time; ~16 hours at 37C (5% O2, 5% CO2, 90% N2; 95% Rh) 8; Detector; EnVision (PerkinElmer) bottom read at 485/14nm excitation and 535/25 nm emission NOTES (numbers refer to sequence above): 1; Complete Malaria Growth Media: 1X RPMI-1640 w/L-glutamine, 5.5g/L Albumax II, 367 uM Hypoxanthine, 25 mM HEPES, 0.25% Sodium Bicarbonate, 35 uM Gentamicin sulfate 2; Controls were added using the Kalypsis Pintool (Wako USA) equipped with 1536 pinhead 3; Compounds were added in a 7-point, titration with a high final concentration of 29 uM by Pintool from seven inter-plate titrations of library plates and two DMSO control plates at the beginning and end (see Yasgar et al., 2008). 4; Red blood cells infected with Plasmodium falciparum Dd2 parasites were used. 6; Lysis buffer: 20 mM Tris-HCl, 10 mM EDTA, 0.16% Saponin, 1.6% Triton-X, 10X SYBR Green. REFERENCE: Inglese J, Shamu CE, Guy RK. 2007. Reporting data from high-throughput screening of small-molecule libraries. Nat Chem Biol. doi:10.1038/nchembio0807-438 Yasgar A, Shinn P, Jadhav A, Auld D, Michael S, Zheng W, Austin CP, Inglese J, Simeonov A. 2008. Compound Management for Quantitative High-Throughput Screening. J Lab Autom 13:79-89. doi:10.1016/j.jala.2007.12.004
# Potency means the concentration at half of the fitted maximal effect; tags describe the fitted curve by direction and shape.
row,Compound,Potency
1,C=C(C)COc1ccc(-c2ncnc(C(F)(F)F)c2-c2ccccc2)c(O)c1,active: 2.37 µM
2,CC(=O)NC1(C)CCCN(Cc2cccc(Nc3ccccc3)c2)C1 (stereo not drawn),"inconclusive: 27.3 µM [inhibitor, single point]"
3,Cc1cn(-c2cc(C(=O)Nc3ccc(C)c(NC(=O)C(=O)c4c[nH]c5ccccc45)c3)cc(C(F)(F)F)c2)cn1,active: 2.11 µM
4,Cc1ccc(-c2nc3n(n2)C(c2ccccc2Cl)C=C(c2ccc(Cl)cc2)N3)cc1 (stereo not drawn),active: 9.44 µM
5,Cc1cc(C[C@@H]2COC[C@@H]2NC(=O)CCc2ccc(=O)[nH]n2)on1,inactive
6,O=c1c2c([nH]c3ccc(Br)cc13)CCCC2,active: 6.68 µM
7,CCc1cccc(NC(=O)c2cc3c(=O)[nH]c4ccccc4c3n2C)c1,"inconclusive: 23.7 µM [inhibitor, single point]"
8,CCc1ccc(NC(=O)CSc2nc3n[nH]c(C)c3c(=N)n2-c2ccc(C)cc2)cc1,active: 6.68 µM
9,Cc1ccc(Nc2nc3nonc3nc2Nc2cccc(C(F)(F)F)c2)cc1Cl,active: 2.11 µM
10,CN1CCN(Cc2nnc(C(=O)N3CCC[C@@H]3c3ccc(Br)cc3)n2Cc2ccccc2)CC1,"inconclusive: 7.5 µM [inhibitor, partial curve]"
11,Cc1cccc(N(C)c2nc3ccccc3c3nnc(C)n23)c1,active: 1.06 µM
12,Cc1noc(-c2cccs2)c1C(=O)NC(C)c1cccc2ccccc12 (stereo not drawn),active: 0.668 µM
13,Cc1cccc(Cl)c1NC(=S)N1CCN(c2ccc([N+](=O)[O-])cn2)CC1,"inconclusive: 1.88 µM [inhibitor, full curve, poor fit]"
14,CCCN1CCC2(CCN(C(=O)c3cccc(Cl)c3)CC2)Oc2ccccc21,inactive
15,CC1Cc2ccccc2N1C(=O)CSc1nnc2c(n1)[nH]c1ccc(F)cc12 (stereo not drawn),"inconclusive: 21.1 µM [inhibitor, single point]"
16,CC(=O)Nc1ccc(CN2C(=O)OC3(CCN(C(=O)C4CCC4)CC3)C2(C)c2ccccc2)cc1 (stereo not drawn),inactive
17,Cc1ccc(-n2c(C3CCN(C(=O)COc4ccc(Cl)cc4)CC3)n[nH]c2=O)cc1,"inconclusive: 10.6 µM [inhibitor, partial curve]"
18,Cc1cc([N+](=O)[O-])ccc1NC(=O)COc1nsnc1N1CCOCC1,active: 6.68 µM
19,CC(C)(C)C(=O)N1CCc2nc(C3CC3)nc(-c3ccc(Cl)cc3)c2C1,"inconclusive: 16.8 µM [inhibitor, single point]"
20,COC(=O)c1nc2n(n1)C(c1ccc([N+](=O)[O-])cc1)C(C(=O)Nc1ccc(Cl)cc1)=C(C)N2 (stereo not drawn),"inconclusive: 5.31 µM [inhibitor, full curve]"
21,CCc1nc(-c2ccc(OC3CCN(CCc4ccccc4)C3)cc2)no1 (stereo not drawn),"inconclusive: 18.8 µM [inhibitor, single point]"
22,Cc1cccn2c(=O)c3cc(C(=O)NCCc4ccccc4)c(=N)n(Cc4ccco4)c3nc12,"inconclusive: 15 µM [inhibitor, single point]"
23,CN(C)CCOCC1(C)COc2ccc(C(=O)Nc3cccc(Cl)c3)cc2N1 (stereo not drawn),"inconclusive: 24.3 µM [inhibitor, single point]"

row,Compound,Potency
1,Cc1ccccc1Cn1c(-c2cncs2)nc2ccccc21,"inconclusive: 15 µM [inhibitor, single point]"
2,CCOC(=O)c1c(CN2CCN(CCO)CC2)n(-c2ccccc2)c2cc(Br)c(O)cc12,active: 5.96 µM
3,COCCNc1nc2cc(C(=O)N3CC[C@H](CO)[C@@H](O)C3)ccc2n1C,inactive
4,CCOc1ccccc1NC(=O)N1CCCC(Cc2ncc(C)n2C(C)C)C1 (stereo not drawn),"inconclusive: 15 µM [inhibitor, single point]"
5,Cc1ccc(C)c(NC(=O)Nc2nnc(N(CC(C)C)CC(C)C)s2)c1,"inconclusive: 9.44 µM [inhibitor, single point]"
6,Cc1nn2c3c(cnc2c1-c1ccccc1)C(=O)CC(c1ccco1)C3 (stereo not drawn),active: 9.44 µM
7,Cc1cc(CN2CCC(CO)(Cc3ccccc3Cl)CC2)cc(C)c1O,active: 16.8 µM
8,CCCC(=O)Nc1cc2c(cc1C(=O)c1ccccc1)OCCO2,"inconclusive: 23.7 µM [inhibitor, partial curve, poor fit]"
9,CCN1CCN(Cc2ccc(NC(=O)c3cc(NC(=O)c4cncc(-c5ccc(C#N)cc5)c4)cc(OC)c3)cc2C(F)(F)F)CC1,active: 0.596 µM
10,O=c1n(-c2ccc(Cl)cc2)nc2n1CCN(Cc1cccc3ccccc13)C2,inactive
11,Cc1cn2nc(-c3nc(C4CCCN(C(=O)c5cccc(Cl)c5)C4)no3)cc2c(=O)[nH]1 (stereo not drawn),inactive
12,Cc1ncoc1C(=O)N1CCCCCC1c1nnc(-c2ccccc2)o1 (stereo not drawn),inactive
13,O=C1NCCCCCCN(Cc2ccncc2)[C@@H]2CN(C(=O)NC3CCCCC3)CC[C@@H]12,inactive
14,O=c1cc(-c2ccncc2)oc2c(-c3ccccc3Oc3ccccc3)nccc12,"inconclusive: 24.3 µM [inhibitor, single point]"
15,CCc1nc(-c2c3n(c(=O)n(Cc4ccc(C(=O)OC)cc4)c2=O)CCCC3)no1,"inconclusive: 9.44 µM [inhibitor, single point]"
16,CCc1noc(-c2cn(C3CCN(C(=O)c4ccc(F)c(F)c4)CC3)nn2)n1,inactive
17,O=C(CC1CCN(C(=O)c2cccs2)C1)NCc1ccccc1 (stereo not drawn),inactive
18,Cc1ccc(C(=O)O/N=C(\N)c2ccccn2)cc1,"inconclusive: 21.1 µM [inhibitor, single point]"
19,Cn1cccc1C(=O)N1CCCCCNC(=O)[C@H]2C[C@H](C(=O)N3CCc4ccccc4C3)C[C@H]21,"inconclusive: 13.3 µM [inhibitor, single point]"
20,CC(C)CNC(=O)C(C)(C)Oc1nn(C(C)C)c2ccc(CN3CCOCC3)cc12,"inconclusive: 15.3 µM [inhibitor, partial curve, poor fit]"
21,CCOc1ccccc1NC(=O)Cn1c(-c2ccccc2)nc(C)cc1=O,inactive
22,CCC(=O)N1CCCCCCNC(=O)[C@@H]2C[C@@H](C(=O)N3CCN(c4ccccn4)CC3)C[C@@H]21,inactive
23,O=C(Nc1ncccc1O)c1ccc(S(=O)(=O)N2CCCC2)cc1,"inconclusive: 5.31 µM [inhibitor, partial curve, poor fit]"

row,Compound,Potency
1,O=C(C1CC1)N(Cc1nc2ccccc2c(=O)[nH]1)Cc1cccs1,inactive
2,CCOc1ccccc1C(=O)Nc1ccc2nc3c(c(Nc4ccc(OC)c(OC)c4)c2c1)CCCC3,"inconclusive: 5.31 µM [inhibitor, full curve, poor fit]"
3,Cc1ccc(CN2C(=O)[C@@H]3C[C@@H](O)CN3C3(CN(Cc4ccccc4F)C3)C2=O)o1,"inconclusive: 21.7 µM [inhibitor, single point]"
4,CCn1ccc2sc(C)c(C(=O)N3CCN(c4ccc(F)cc4)CC3)c2c1=O,inactive
5,Cc1ccc2nc(CO[C@H]3CN(Cc4ccccc4)C[C@H]3F)[nH]c2c1,"inconclusive: 17.2 µM [inhibitor, partial curve, poor fit]"
6,Cc1cc(N2CCN(C)CC2)nc2ccc(NC(=O)Nc3ccccc3Br)cc12,"inconclusive: 6.68 µM [inhibitor, full curve, poor fit]"
7,Cc1nc(NCc2ccccc2)[nH]c(=O)c1CCC(C)C,inactive
8,Cc1ccc(CN2C(=O)C(Cc3ccccc3)Nc3ncnc(N4CCN(c5ccccc5)CC4)c32)cc1 (stereo not drawn),"inconclusive: 16.8 µM [inhibitor, single point]"
9,COc1ccc2nc([C@H]3CCN(Cc4ccc(F)cc4)C3)[nH]c2c1,"inconclusive: 34.4 µM [inhibitor, single point]"
10,O=C(c1cc(F)ccc1F)N1CC(c2nnc(-c3ccncc3)o2)C2(CCOCC2)C1 (stereo not drawn),inactive
11,Cc1cc(OC2CN([S+](=O)([O-])c3cccs3)C2)ccc1F,"inconclusive: 15.3 µM [inhibitor, partial curve]"
12,CCc1ccc(CNc2ncnc3onc(-c4ccc(Cl)cc4)c23)cc1,"inconclusive: 21.1 µM [inhibitor, single point]"
13,COc1cc(Br)c(C2CC(=O)Nc3cc4c(cc32)OCCO4)cc1OC (stereo not drawn),active: 2.37 µM
14,CCc1cccc(NC(=O)Cn2c(-c3cnccn3)nc(C)c(C)c2=O)c1,"inconclusive: 21.1 µM [inhibitor, single point]"
15,COc1ccccc1-c1cc(C(=O)N2CCN(S(=O)(=O)c3ccc(C)cc3)CC2)[nH]n1,active: 7.5 µM
16,CC(C)Cn1c(-c2ccco2)nc2c(c(=O)c3ccccc3n2C)c1=O,active: 9.44 µM
17,CC(Sc1nc2ccccc2c(=O)n1C)C(=O)Nc1ccc2c(c1)OCCO2 (stereo not drawn),"inconclusive: 0.596 µM [inhibitor, full curve, poor fit]"
18,CC(=O)Nc1ccc(CN2C(=O)OC3(CCN(C(=O)COc4ccccc4)CC3)C2(C)c2ccccc2)cc1 (stereo not drawn),"inconclusive: 21.1 µM [inhibitor, single point]"
19,Cc1cc(C)c(NC(=O)Cn2c(=O)n(CC(=O)NCc3ccccc3Cl)c(=O)c3sccc32)c(C)c1,"inconclusive: 0.842 µM [inhibitor, full curve, poor fit]"
20,Cc1ccc(NC(=O)c2cc(-c3ccc[nH]3)n[nH]2)cc1C,inactive
21,COc1ccc(-c2cc(=O)c3cc(C)ccc3[nH]2)cc1,"inconclusive: 10.6 µM [inhibitor, partial curve]"
22,O=C(NC1CC1)[C@@H]1CN(CCCc2ccccc2)C[C@H]1CO,"inconclusive: 16.8 µM [inhibitor, single point]"
